Earlier results as cited in patent publication US7012061B1 (New York University, priority 1998, dated 2006).

System: brain tumor microvessel permeability
Conditions: rat, in vivo; cited from earlier work

COC(=O)[C@@H](N)CCCNC(=N)N[N+](=O)[O-] [NG-nitro-L-arginine methylester]
Bradykinin-induced increase of tracer transport into brain tumors: significantly inhibited
